Paper PMC4336329 (PLoS ONE, 2015)
Screen size: about 310,000 compounds; about 14,000 (4.5%) showed an effect of 50% or more. Effects have a minus sign here. Some of the results follow.

target: human ether-à-go-go-related gene (hERG) potassium channel (human, UniProt Q12809); experiment: primary screen, population patch clamp on CHO cells stably expressing hERG
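Also: peak tail current of the secondary pulse compared with the same well before compound.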

Sequence of human ether-à-go-go-related gene (hERG) potassium channel (Q12809 whole entry, looked up): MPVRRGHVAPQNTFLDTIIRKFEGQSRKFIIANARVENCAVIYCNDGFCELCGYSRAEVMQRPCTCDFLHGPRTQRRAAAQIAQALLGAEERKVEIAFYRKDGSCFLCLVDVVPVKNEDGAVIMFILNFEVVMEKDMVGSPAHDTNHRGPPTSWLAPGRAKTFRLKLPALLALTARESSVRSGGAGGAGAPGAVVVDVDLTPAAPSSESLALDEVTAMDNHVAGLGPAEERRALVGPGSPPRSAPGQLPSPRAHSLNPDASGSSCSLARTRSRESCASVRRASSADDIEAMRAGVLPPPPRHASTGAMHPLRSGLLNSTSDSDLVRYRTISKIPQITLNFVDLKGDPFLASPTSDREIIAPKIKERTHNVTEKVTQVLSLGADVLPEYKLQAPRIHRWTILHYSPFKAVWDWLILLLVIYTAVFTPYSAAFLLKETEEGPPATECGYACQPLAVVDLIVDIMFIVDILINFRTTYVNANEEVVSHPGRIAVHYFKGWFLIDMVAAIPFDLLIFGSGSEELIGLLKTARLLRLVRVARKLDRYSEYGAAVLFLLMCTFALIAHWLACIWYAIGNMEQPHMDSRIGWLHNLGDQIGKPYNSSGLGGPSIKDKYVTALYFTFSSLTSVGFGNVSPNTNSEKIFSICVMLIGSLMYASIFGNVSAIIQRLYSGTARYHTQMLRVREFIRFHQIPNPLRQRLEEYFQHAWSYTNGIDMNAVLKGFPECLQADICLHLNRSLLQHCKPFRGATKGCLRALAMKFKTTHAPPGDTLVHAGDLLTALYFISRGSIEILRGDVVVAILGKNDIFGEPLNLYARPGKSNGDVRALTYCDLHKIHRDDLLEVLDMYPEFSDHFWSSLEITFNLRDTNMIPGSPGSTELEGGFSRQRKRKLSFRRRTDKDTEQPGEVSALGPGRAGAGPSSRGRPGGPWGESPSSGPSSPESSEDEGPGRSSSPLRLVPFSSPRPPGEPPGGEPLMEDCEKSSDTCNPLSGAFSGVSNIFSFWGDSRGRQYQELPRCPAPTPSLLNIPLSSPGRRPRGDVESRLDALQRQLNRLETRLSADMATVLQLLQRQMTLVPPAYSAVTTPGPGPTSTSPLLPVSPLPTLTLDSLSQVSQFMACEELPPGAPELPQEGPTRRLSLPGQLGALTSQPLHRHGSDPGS

| Structure (SMILES) | hERG current change (%, negative = inhibition) at 10uM |
| --- | --- |
| CCCc1cc(=O)oc2c(C)c(OCC(=O)NCCN3CCOCC3)ccc12 | -31.6% |
| COc1cccc(CN2CCN(CC(=O)NCCc3ccccc3)CC2)c1 | -11.8% |
| Cc1ccc(-c2nc3ccccc3[nH]2)cc1NC(=O)c1ccc2c(c1)OCO2 | -34.8% |
| C[C@H](CO)NC(=O)[C@@H]1C[C@H]1[C@@H](NP(=O)(c1ccccc1)c1ccccc1)c1ccccc1 | 3.36% |
| CSCCC(NC(=O)c1ccccc1)C(=O)OCC(=O)N(C)CCC#N (centres unmarked) | -1.97% |
| CCCOP(=O)(OCCC)c1nc(-c2ccccc2)oc1NCc1ccccc1 | 6.49% |
| Cn1cccc1C(=O)NC(=O)COC(=O)Cc1coc2ccc3ccccc3c12 | 3.26% |
| O=C(Nc1cccc(C(F)(F)F)c1)Nc1ccc(N2CCCC2)c(S(=O)(=O)Nc2ccccc2Cl)c1 | 9.74% |
| Cc1ccc([N+](=O)[O-])cc1N(CC(=O)NCC1CCCO1)S(C)(=O)=O (centres unmarked) | 13.8% |
| Cc1ccc(Cl)cc1N1CCN(C(=O)Cc2c(C(=O)O)[nH]c3ccccc23)CC1 | -6.17% |
| Cn1cc(CCNC(=O)C2CCC(=O)N(CCc3ccc(Cl)cc3)C2)cn1 (centres unmarked) | -11.6% |
| Cc1sc2ncnc(Nc3ccc(N4CCOCC4)cc3)c2c1-c1ccccc1 | -1.77% |
| Cc1coc2c1c(C)cc1oc(=O)c(CC(=O)NCC(=O)N[C@H](C(=O)O)C(C)C)c(C)c12 | 17.3% |
| COc1ccc2nc3cc(Cl)ccc3c(Nc3cc(C(C)C)c(O)cc3C)c2c1 | 27.2% |
| CCOC(=O)N1CCN(C(=O)c2ccc3c(=O)n4c(nc3c2)CCCCC4)CC1 | -2.31% |
| CCN(CC)c1ccc2c(O)cc(=O)oc2c1 | 1.84% |
| N/C(=N\OC(=O)c1cccc([N+](=O)[O-])c1)c1cccnc1 | 0.913% |
| Cc1cccc(CNC(=O)C2CCC(=O)N(C3CC3)C2)c1 (centres unmarked) | 9.51% |
| Cc1ccc(/C=C2/C(=N)N3N=C(CC(=O)N4CCCC4)SC3=NC2=O)o1 | 17.6% |
| COc1ccc(OCc2nc(-c3ccc(F)c(F)c3)cs2)cc1 | 12.5% |
| O=C(CSc1nnc(CNC(=O)c2ccccc2F)o1)Nc1cccc(C(F)(F)F)c1 | -29% |
| O=C(CCc1nc(-c2ccccc2)no1)Nc1cccnc1 | -2.85% |

| Structure (SMILES) | hERG current change (%, negative = inhibition) at 10uM |
| --- | --- |
| N#Cc1c(-c2ccccc2)nc2n1CCS2 | 5% |
| CC(C)(C)C(=O)N1CCN(C(=O)c2ccco2)CC1 | 12.5% |
| Cc1c(Cl)c([N+](=O)[O-])nn1CCCC(=O)Nc1cccc(Cl)c1 | -51.7% |
| Cc1cccn2c(=O)c3c(nc12)N1CCc2ccccc2C1C1(C3)C(=O)NC(=O)N(C)C1=O (centres unmarked) | 9.79% |
| CC(C)C[C@H](NC(=O)N1CCn2c1nc1ccccc12)C(=O)N[C@H](Cc1ccccc1)C(=O)O | 15.9% |
| CCN(CC)CC(=O)NC1CC(C)(C)Cc2c1cnn2-c1ccc(F)cc1 (centres unmarked) | 7.43% |
| O=C(NCCCN1CCCC1=O)c1ccc2c(=O)n(Cc3ccco3)c(=S)[nH]c2c1 | -17.8% |
| CC1(C)OC(=O)C(=CNc2ccccc2)C(=O)O1 | -4.48% |
| COC(=O)[C@@H](NC(=O)O[C@@H]1C(=O)c2ccc(OC)cc2O[C@H]1c1cccc(C(F)(F)F)c1)C(C)C | 5.54% |
| COc1ccccc1N(C)S(=O)(=O)c1ccc(C(=O)OCC(=O)NCC(F)(F)F)cc1 | 7.97% |
| COC(=O)c1cc(S(=O)(=O)N2CCCC(C)C2)cn1C (centres unmarked) | -16% |
| Cc1cc(/C=N/NC(=O)C(=O)NCc2ccccn2)c(C)n1-c1cccc(Br)c1 | -14.8% |
| CN(CC(=O)N1CCN(c2ccccc2)CC1)C1CCCc2ccccc21 (centres unmarked) | -29% |
| COc1cccc(CN(C)CC(=O)Nc2ccccc2N2CCOCC2)c1OC | -12.8% |
| CCN(CC(=O)NCc1cccs1)CC(=O)Nc1c(Cl)ccc(C)c1Cl | -16.8% |
| COc1ccc(NC(=S)NC2CCCCC2)c(OC)c1 | -5.06% |
| CC1=C(C(=O)Nc2ccccc2C)C(c2ccc(C)o2)C2=C(CCCC2=O)N1 (centres unmarked) | 5.37% |
| Cc1cc(NC(=O)c2ccc(Cl)cc2)no1 | 10.9% |
| COC(=O)/C=C/c1ccccc1S(=O)(=O)N(Cc1ccccc1)Cc1ccco1 | -13% |
| O=C1C2C3C=CC(C2C(=O)N1CCCO)C1C2C(=O)N(CCCO)C(=O)C2C31 (centres unmarked) | 21.2% |
| COC(=O)CN(c1cccc(C)c1)S(=O)(=O)c1ccccc1 | -14% |
| Cc1ccc(S(=O)(=O)Oc2cccc(N3C(=O)C4CC=CCC4C3=O)c2)cc1 (centres unmarked) | -17.3% |

| Structure (SMILES) | hERG current change (%, negative = inhibition) at 10uM |
| --- | --- |
| CCOC(=O)c1ccc(-n2ccnc2)c(NC(=O)c2ccc(C(C)(C)C)cc2)c1 | -41% |
| CC(CCc1ccccc1)NC(=O)CN1CCc2ccccc2C1 (centres unmarked) | -22.4% |
| CCn1ncc([N+](=O)[O-])c1C(=O)Nc1c(C)nn(Cc2ccc(F)cc2)c1C | -34.8% |
| CC(=O)N1c2c(cc(Br)cc2S(=O)(=O)NCC2COc3ccccc3O2)CC1C (centres unmarked) | -44.5% |
| CC1CCCN(CCC(=O)Nc2ccc(Br)cc2)C1.Cl (centres unmarked) | -57.6% |
| CN(Cc1ccccc1)S(=O)(=O)c1cccc2nsnc12 | -1.15% |
| CCC(C)(C(=O)NC1CCCCC1)N(C(=O)CNC(=O)c1ccccc1)c1c(C)n(C)n(-c2ccccc2)c1=O (centres unmarked) | 10.1% |
| CC1=NN(c2cccc(Cl)c2)C(=O)C1 | 6.9% |
| Cc1ccccc1C(=O)NC1CCSC1=O (centres unmarked) | -8.72% |
| CCc1ccccc1N(CC(=O)N1CCN(c2ccc(F)cc2)CC1)S(C)(=O)=O | -35.7% |
| CCn1c(SCC(=O)c2ccc(Cl)cc2)nnc1-c1ccoc1C | -32.5% |
| COc1ccc(/C=C2\SC(=O)N(CC(=O)Nc3cccnc3)C2=O)cc1OC | 22.9% |
| Cn1c(SCC(=O)N/N=C/C=C/c2ccccc2[N+](=O)[O-])nc2ccccc21 | -1.36% |
| CCN(CC)S(=O)(=O)N1CCN(S(=O)(=O)N2CCOCC2)CC1 | 11% |
| CC(=O)O.CN(C)Cc1cn(CCC(=O)O)c2ccccc12 | 11.7% |
| COc1ccc(C(=O)NCc2ccc3c(c2)OCO3)c(OC)c1 | 4.98% |
| CNc1sc(C(=O)c2ccc(F)cc2)c(N)c1-c1nc2ccccc2s1 | 12.2% |
| CCCC(c1c(C)n(C)n(-c2ccccc2)c1=O)c1c(C)n(C)n(-c2ccccc2)c1=O | 0.692% |
| COc1ccc(-c2noc(CCCC(=O)Nc3cccnc3)n2)cc1OC | -6.97% |
| O=C(Nc1cccc(F)c1)/C(=C\c1ccco1)NC(=O)c1cccs1 | -8.28% |
| C(#Cc1ccccc1)CN1CCN(c2ccccn2)CC1.Cl | -8.88% |
| CCN1CCN(c2nc(Nc3ccc(OC)cc3)nc(N)c2[N+](=O)[O-])CC1 | -32.2% |

| Structure (SMILES) | hERG current change (%, negative = inhibition) at 10uM |
| --- | --- |
| CCc1cc2c3c(c(=O)oc2cc1O)CCCC3 | 15.2% |
| O=S(=O)(c1ccccc1)c1nc(NCc2cccnc2)sc1Cl | -16.9% |
| CCOC(=O)c1cc(NC(=O)COc2ccc([N+](=O)[O-])cc2)cc(C(=O)OCC)c1 | -12.9% |
| CCC(=O)N1CCc2cc(S(=O)(=O)CCC(=O)Nc3ccc(C)c(F)c3)ccc21 | -0.224% |
| CCCCCOC(=O)Nc1ccc(S(=O)(=O)Nc2cccc([N+](=O)[O-])c2)cc1 | -4.77% |
| Clc1ccc(Cl)c(-c2nn3c(Cn4cnc5ccccc54)nnc3s2)c1 | 10.2% |
| CC(C)CCOc1cccc(OCC(=O)NC2CCS(=O)(=O)C2)c1 (centres unmarked) | -13.2% |
| CC(C)c1ccccc1NC(=S)N1CCN(S(=O)(=O)c2cccs2)CC1 | 7.53% |
| CCOC(=O)c1cnc(SCc2nc(N)nc(Nc3ccccc3)n2)nc1N | 4.97% |
| CC1Oc2ccccc2C=C1/C=N/NC(=O)c1ccccc1O (centres unmarked) | -4.16% |
| COc1ccc(/C(C)=N/N2CCOCC2)c(O)c1 | 2.21% |
| O=C(CC1NCCNC1=O)Nc1ccc2c(c1)OCO2 (centres unmarked) | 0.941% |
| CCn1c(SCC(=O)c2cc(OC)ccc2OC)nnc1C1CC1 | 7.86% |
| CCN(CC#CCC1(O)c2ccccc2-c2ccccc21)CCO | 9.9% |
| CC1(C)CC(O)(CNCc2ccc3c(c2)OCO3)CCO1 (centres unmarked) | 10.2% |
| CCOC(=O)c1ccccc1NS(=O)(=O)c1ccc(OCC)cc1 | -0.383% |
| Cc1cccc(C)c1OCCCCc1c(C)n[nH]c1C | -3.81% |
| COC(=O)CN1C(=O)C(O)(CC(=O)c2cccc(Br)c2)c2ccccc21 (centres unmarked) | -11.7% |
| N#CC1=C(N)Oc2n[nH]c(-c3ccc(F)cc3)c2C1c1cccc(OC(=O)N2CCOCC2)c1 (centres unmarked) | 3.68% |
| Cc1cc(=O)oc2c(C)c(OCC(=O)N3CC[C@@]4(O)CCCC[C@H]4C3)ccc12 | -5.79% |
